We go through one substance from US11339383B2, “G proteins” (HEPTARES THERAPEUTICS LIMITED, priority 2016, dated 2022).

The target of this assay is β1AR-WT (Meleagris gallopavo, UniProt P07700, C116L). Type of assay: binding, turkey. The conditions noted are these: relative to uncoupled 40 nM, membranes, 20° C.

Turning to “Gs: non-lipidated Gs (Gαsβ1γ2) heterotrimer [reference compound]”, the “shift of isoprenaline Ki of β1AR-WT in response to binding partner” value is on record as 2.4 fold.
